Reference: ChEMBL document CHEMBL4888484, “Replenishing the malaria drug discovery pipeline: Screening and hit evaluation of the MMV Hit Generation Library 1 (HGL1) against asexual blood stage Plasmodium falciparum ,using a nano luciferase reporter read-out” (2022)
Screen size: about 150,000 compounds; about 540 (0.36%) showed an effect of 50% or more. Some of the results follow.

Tested on: Plasmodium falciparum
Experiment: Primary screen in NF54 nanoGlo assay, in single point, at 2uM, 72h; a lower Z score goes with more inhibition
Format: functional, Erythrocyte
Details: timepoint 72 hour

Compound | % Inhibition | Z score
COCCCN(Cc1ccc(OC)cc1)c1ncnc2oc(C)nc12 | 10% | -1.31
CCCc1nnc(NC(=O)N2CCC3CCCC32)s1 (stereo not given) | -5% | 0.7
O=C(NCCCN1CCCC1)[C@H]1CCCN(c2nc3cccnc3s2)C1 | -26% | 2.27
CN1CCC(NC(=O)c2cc(-c3ccccc3Cl)nc3ccccc23)CC1 | 6% | -0.79
CCn1ccnc1[C@H]1CCCN(C(=O)c2ccc(N(C)C)cc2)C1 | -8% | 1.12
Cn1cc(C(=O)N2CCCO2)c(C(C)(C)C)n1 | -6% | 0.58
Cc1ccc(C[C@H](NC(=O)c2cc(C#N)c[nH]2)c2cccnc2)cc1 | -13% | 1.74
COCC1(F)CCN(Cc2c(-c3ccc(C)cc3C)nc3ccccn23)CC1 | -7% | 0.9
COC[C@H]1[C@@H](NC(=O)c2cc(C)nc(C)n2)[C@H]2CCO[C@H]21 | -4% | 0.46
Cc1ccc(-c2noc(CCC(=O)NCc3cccnc3)n2)cc1 | -17% | 1.97
Cc1noc(C)c1CC(=O)N[C@@H](C)C1CC1 | 6% | -1.07
COc1ccc(-c2ccnc(N[C@H]3CO[C@H]4[C@@H]3OC[C@H]4OCC(=O)N(C)C)n2)cc1 | -7% | 0.86
OCC#Cc1csc(CNCCN2CCCC[C@@H]2CO)c1 | -5% | 0.93
CN1C(=O)CCCC[C@H]1C(=O)N1CC=C(c2ccccc2)CC1 | -9% | 1.04
CCn1ccc(CN2CCC3(CCC(=O)N(C4CC4)C3)CC2)n1 | 12% | -1.64
Clc1ccc(CNc2nc(N3CCOCC3)nc(N3CCOCC3)n2)cc1 | -3% | 0.41
Cn1cc(NC(=O)c2ccc3nncn3c2)c(C(F)(F)F)n1 | 0% | -0.06
CCCN(C(=O)[C@H]1CCCN(C2CCN(Cc3cccnc3)CC2)C1)C1CCCC1 | -5% | 0.47
Cc1ccc(CNC(=O)c2cc3c(s2)CCC3)cn1 | 13% | -1.7
CC(C)(C)OC(=O)N1C2CCCC1CN(Cc1cc[nH]n1)C2 | -6% | 0.75
COc1nccnc1O[C@H]1CCN(C(=O)c2cnc3ccccc3n2)C1 | -2% | 0.25
Cc1c(CNCc2cc3ccc(F)cc3n(C)c2=O)cnn1C | -1% | 0.08
COCCN(C)[C@H]1CN(C(=O)c2ccc3c(c2)CCO3)C[C@@H]1O | -6% | 0.84
CC(C)Oc1ncccc1C(=O)NC1CCCC1CNS(C)(=O)=O (stereo not given) | -7% | 0.66
CC(OC(=O)C1CC(=O)N(C2CCCC2)C1)C(=O)Nc1ccc(S(N)(=O)=O)cc1 (stereo not given) | -2% | 0.33
Cc1cc(C)cc(CN2CCCN(c3ccc(NC(=O)Cc4cccs4)cc3)C2=O)c1 | -7% | 1.39
CC(=O)NC[C@H]1CCCN(c2nc3c(s2)c(C)nn3C)C1 | -10% | 1.68
O[C@@]1(C(F)(F)F)CCN(c2noc(-c3ccccc3)n2)C1 | -1% | 0.16

Compound | % Inhibition | Z score
COCC(=O)Nc1ccc(N(C)C)c(CN(C(=O)NC(C)C)[C@@H](C)c2ccccc2)c1 | -15% | 2.85
CC(C)c1ccc(OC[C@H]2CN(C(=O)Cc3ccccc3)CCO2)cc1 | -8% | 1.19
CCc1nnc(NC(=O)C2(C)CC2F)s1 (stereo not given) | -1% | 0.16
CCCCN(C)C(=O)c1cc2c(n1C)CCN(Cc1cccc(F)c1)C2 | -7% | 1.06
CCc1c2c(=O)n(-c3nc4ccccc4s3)[nH]c2cc(=O)n1CCCN1CCOCC1 | 81% | -10.48
CN(C)c1ccnc(CNS(=O)(=O)c2ccccc2)n1 | 6% | -0.96
Cc1nc(N2CCCC[C@@H]2C)c2c(C)c(C(=O)N(C)C3CCCCC3)sc2n1 | -9% | 1.39
C[C@H]1CNC(=O)CCN1Cc1ccccc1Cn1cccn1 | -2% | 0.37
C[C@@H](C(=O)NC1CC1)S(=O)(=O)c1ccc2ccccc2c1 | -3% | 0.51
c1cn(CCCNc2nc(N3CCOCC3)c3nn[nH]c3n2)cn1 | -8% | 1.25
N#Cc1ccc2c(c1)C1OCCCC1C(c1cccc(O)c1)N2 (stereo not given) | -16% | 1.43
CCC1CCC(C(=O)NCC(=O)N2CCn3cncc3C2)CC1 (stereo not given) | -22% | 2.8
c1cncc(-c2nnc3n2CCNC3)c1 | -8% | 1.07
CC[C@](C)(O)CNC(=O)c1cc(Cl)ccc1O | 7% | -1.12
CCOC(CCn1cc(CNC(=O)C(CC)CC)nn1)OCC | -10% | 1.56
Cc1ccc(-c2csc(-n3nc(C(F)(F)F)cc3-c3ccco3)n2)cc1 | -32% | 3.77
C=C(C)Cn1c(CC(C)(C)O)nnc1N1CCN(C(C)=O)CC1 | -7% | 1.38
COc1cccc(N2CCN(C(=O)c3ccc4c(c3)N(CC(=O)NC(C)C)C(=O)CO4)CC2)c1 | -1% | 0.11
Fc1cncc(NCc2cscn2)c1 | -10% | 1.98
O=C(c1cc[nH]n1)N1Cc2ccccc2-c2ccccc21 | 5% | -0.74
NCC[C@H](NCc1cn(C2CCCC2)nc1-c1ccccn1)C(F)F | 5% | -1.03
C[C@@H](Cc1ccc(Br)cc1F)NS(C)(=O)=O | 2% | -0.36
O=C(NCc1nn(C2CCCC2)c(=O)c2ccccc12)c1ccc(F)cc1F | -20% | 2.58
CC(C)(C)OC(=O)N1CC[C@H]1c1noc(Cn2ccccc2=O)n1 | -9% | 0.91
COc1c(F)ccc(-c2cn(CCS(C)(=O)=O)nn2)c1F | 5% | -0.69
CCc1nc(N2CC[C@@H](CO)[C@@H](O)C2)ncc1C | -14% | 1.4
Cc1ccc(C)c(S(=O)(=O)N2CCc3cc(S(=O)(=O)NC4CCCC4)ccc32)c1 | -5% | 0.69
